Source: the supplement of paper PMC3334620
In all, about 33,000 sequences were measured (“E-score (-0.5 to 0.5)”: median about -0.016, highest 2% from about 0.32 on). The list shows a part of the results.

These sequences were tested against T1, Stp1 (UniProt B3LFK1) (assay: PBM E-score (8-mer binding enrichment) (E-score (-0.5 to 0.5)); higher = stronger / more preferred TF binding; most listed sequences are background and not binding sites). Conditions: protein concentration: 200 nM; construct: GST-full length.
T1 sequence: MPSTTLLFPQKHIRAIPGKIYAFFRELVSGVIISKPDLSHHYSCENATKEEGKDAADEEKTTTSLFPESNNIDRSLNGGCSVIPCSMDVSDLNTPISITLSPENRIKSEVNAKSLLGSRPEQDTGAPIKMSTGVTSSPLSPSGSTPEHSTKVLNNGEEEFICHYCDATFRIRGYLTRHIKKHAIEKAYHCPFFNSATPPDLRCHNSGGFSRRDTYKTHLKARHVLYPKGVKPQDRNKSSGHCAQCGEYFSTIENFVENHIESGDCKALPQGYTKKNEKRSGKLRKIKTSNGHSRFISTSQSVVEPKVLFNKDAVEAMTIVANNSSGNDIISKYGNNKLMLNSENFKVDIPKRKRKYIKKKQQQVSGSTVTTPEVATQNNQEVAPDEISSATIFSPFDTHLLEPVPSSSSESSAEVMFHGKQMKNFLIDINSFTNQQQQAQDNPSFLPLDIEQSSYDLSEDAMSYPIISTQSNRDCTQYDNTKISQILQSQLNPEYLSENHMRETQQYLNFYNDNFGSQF
Summary of the method: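 The E-score, a modified Wilcoxon-Mann-Whitney statistic, was computed by the Universal PBM Analysis Suite for every ungapped eight-base word pooled with its reverse complement. Scans behind it were normalised with masliner after bound GST-tagged yeast transcription factors were detected with fluorescent anti-GST. The proteins, at about 100-200 nM, had been applied to universal all-10-mer Agilent arrays made double-stranded by primer extension.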

Sequence | PBM E-score
CATGTAGG | -0.00116
AGGGAATC | -0.198
ATAACGAT | -0.129
GACTATTA | 0.0464
TTTAAAAA | 0.0991
CTCACTGC | 0.00787
AGGAAAAC | 0.0148
ATGGCAGC | 0.00395
CATACGGG | 0.224
CAAGTATA | -0.137
CACGGAGG | -0.0175
AAATACTG | 0.0916
ACTGCGCG | -0.00393
AGGGAAGA | -0.0806
AGCCGTCG | 0.25
AGAGTGGG | -0.0334
ACTTCCGC | -0.073
CAGTTGGG | -0.0275
ATAATCGA | 0.0249
CAGTTCCC | 0.0354
AGTTTCAC | 0.0233
CGCTGGAC | 0.0348
CAGACTAG | -0.133
CCATCGAA | -0.0768
CACCAGTG | 0.0209

Sequence | PBM E-score
ACGGCTGC | 0.289
CTCAGGAG | -0.0115
ACCTGTGG | -0.234
CTATTGCA | 0.101
CGCAGTCA | -0.175
ACATGACT | -0.113
ACGCATAC | 0.0313
ACCGTCGC | 0.0157
AAAATGAC | 0.00804
ACCCTCGA | -0.202
AAGCTGTA | 0.134
ATTGAGCA | -0.13
GTACAAGA | -0.041
AGCTGTTA | -0.0528
CAAATAGA | 0.0398
CTCCTAGA | -0.0773
AGAACCCT | -0.25
TCCGACGA | 0.00954
TGCGTCAA | -0.142
CAATTCCC | -0.024
CATTGCAC | 0.0819
AACCTAGC | -0.264
CCGTTGGA | 0.0306
AGAGAGAG | -0.162
ATAACCCA | -0.0713

Sequence | PBM E-score
GATTGTCA | -0.0226
CGGAGGGC | -0.0519
ACATTAAT | 0.0799
CTTCAATC | 0.0211
AAATTCAG | 0.0646
CCATAGGA | -0.0698
TCCAGGAA | -0.158
CTTTTGCA | 0.212
ACCAATAA | 0.178
CTGCGTAA | -0.0102
CACCCAAA | 0.184
GTCGGAGA | -0.0754
ACTGCTGC | -0.0596
TCGCAAGA | -0.146
TCCCCTAA | -0.121
CTTGACGC | -0.0146
AGTCAGCG | -0.304
GAACCACC | -0.0044
GTGCAAAA | 0.127
ATCCAGAG | 0.0478
CAGGTATA | -0.083
AAGATAGA | 0.0263
CATATCAA | 0.238
CGCTAGGC | 0.0429
GGCCCCAA | -0.11

Sequence | PBM E-score
AAGTCAGG | -0.181
TACGTACA | 0.122
ACTTGCGG | -0.085
ACCAGCTG | -0.224
AGGTACGC | 0.0567
GCTTCGCC | -0.0679
CCTTATCG | 0.105
AACGCTGG | -0.13
ACGTATTC | 0.125
AGCCGAAT | 0.222
CTCCCCAC | -0.373
CTAGCGGA | -0.0753
GTAAACCA | -0.0263
CACGCGGG | 0.143
CGAGGCTC | 0.131
ATTCGTAG | 0.107
AACCGAGA | -0.105
AGTAATGC | 0.0704
ATCCTCTA | -0.125
GGTAAGAA | -0.318
ATTTTCAG | 0.138
TCGACAAA | 0.0854
GCTAGCCC | -0.29
CCGTGCGC | 0.433
CGTGTGCC | 0.205

Sequence | PBM E-score
GCAGCCCC | -0.049
ATGGCGCG | 0.196
AGGAGACC | -0.227
CATGATGC | 0.0936
AACGTCGG | -0.227
ATAGCTTA | 0.0278
ATGGCTAG | 0.0312
CAACTCAG | -0.0903
AGATGCAT | -0.13
ACCTTACG | 0.159
GGATATTA | 0.0838
GTGTCGTA | 0.0455
ACCGGTAA | -0.136
AATTATTG | 0.173
GAGGAGGA | -0.334
CCCTGCCG | 0.161
CTCTCAGA | 0.0187
ACTCGTGG | -0.0658
CAGATAAC | -0.0126
CCTATTAA | 0.0196
AATATGAC | -0.0274
AGCCAATG | -0.113
ACCGTTAG | 0.0519
CTTAAGCA | -0.0469
ATTTCTGC | 0.245

Sequence | PBM E-score
AGAGAGGA | -0.195
GCCGTACA | 0.459
CCCGCATA | 0.21
AAACAACC | 0.0506
GTTAGAAA | 0.0629
AAAGAGTT | -0.175
GTGAGAAA | 0.128
CCGCCAAC | -0.223
CCACGGGG | -0.124
AACTTGGT | 0.146
ACCTCCAT | -0.119
CCCGTTCG | 0.0486
AGACTGAA | -0.0951
AAAGTCCG | -0.0409
CGTATCAG | 0.143
AGAATCGA | -0.0411
ACGCCTAG | 0.0738
AAACGGTT | -0.155
CGGGTCAC | -0.229
GTCGGTCA | -0.175
CACGAGAC | -0.0878
CCGAACTA | 0.0447
ATTCAGAG | -0.0616
CGGACAGA | 0.0188
GGTACGCA | -0.0218

Sequence | PBM E-score
CAACTAGC | -0.039
GTGCGTCA | -0.124
CTTTTAAC | 0.0407
TAGATTCA | -0.0655
TAACGTAA | -0.0249
ATCCAGCC | -0.205
CTTATGTA | 0.0537
ACACGCGA | 0.116
CCCGGACA | 0.0109
GCGGGACA | -0.101
AGTTACAT | -0.109
CGTGGCGC | 0.303
CTGCTAAA | -0.0648
ACCCTTAG | -0.223
ATCGTTCC | -0.0493
TATTCAGA | 0.0372
AGCGTCTG | -0.168
AGATGGTA | 0.0214
CACGGGTA | 0.178
CAAGGGAC | -0.176
AAACGTAA | 0.052
ATATCACA | 0.0419
